Structures can show the parent of a compound that is named as a salt. This is one part of the list. Most values come without repeats; read them as rough.
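Further: monoclonal Beas-2B line stably carrying CMV promoter-driven AQP5-HiBiT, 5,000 cells per well in 384-well plates, lytic HiBiT plus LgBiT NanoLuc luminescence, FDA-approved drug library screen.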

The subject of the assay is Beas-2B AQP5-HiBiT reporter cells. As to the kind of experiment: AQP5-HiBiT luminescence relative to vehicle (ratio to vehicle); higher = higher AQP5-HiBiT protein abundance. As to conditions: 10 µM; 18 h. On the technique in general: HiBiT is a short tag that completes a luciferase, so light tracks the accessible tagged protein.
For `Nc1ncn([C@@H]2O[C@H](CO)[C@@H](O)[C@H]2O)c(=O)n1` [Mylosar], the AQP5-HiBiT luminescence stood at 1.61.

Consider `CC(=O)OC(C)C[N+](C)(C)C` (centres undefined) [Methacholine Chloride], for which the AQP5-HiBiT luminescence was 1.13.

As to `COC(=O)CCc1ccc(OCC(O)CNC(C)C)cc1` (centres undefined) [Esmolol hydrochloride], the AQP5-HiBiT luminescence is 1.29.

Consider `COCCc1ccc(OCC(O)CNC(C)C)cc1` (centres undefined) [Metoprolol tartrate], for which the AQP5-HiBiT luminescence was 1.96.

Turning to `C[C@]12CCC(=O)C=C1CC[C@@H]1[C@@H]2C(=O)C[C@@]2(C)[C@H]1CC[C@]2(O)C(=O)CO` [Cortisone], the AQP5-HiBiT luminescence was 0.995.

Take `CC(=O)N1CCN(c2ccc(OCC3COC(Cn4ccnc4)(c4ccc(Cl)cc4Cl)O3)cc2)CC1` (centres undefined) [Ketoconazole]: the AQP5-HiBiT luminescence came to 1.03.

As to `CC(C)c1nc(N(C)S(C)(=O)=O)nc(-c2ccc(F)cc2)c1/C=C/[C@@H](O)C[C@@H](O)CC(=O)O` [Rosuvastatin calcium], the AQP5-HiBiT luminescence was found to be 0.744.

In the case of `Cc1cn([C@H]2C[C@H](N=[N+]=[N-])[C@@H](CO)O2)c(=O)[nH]c1=O` [Zidovudine], the AQP5-HiBiT luminescence was found to be 0.956.

As to `CC(C)c1c(C(=O)Nc2ccccc2)c(-c2ccccc2)c(-c2ccc(F)cc2)n1CC[C@@H](O)C[C@@H](O)CC(=O)O` [Atorvastatin Calcium], the AQP5-HiBiT luminescence came to 0.704.
